From publication PMC9587022 (2022)
No constants are given. Whether binding was seen depends on the method and setting. In cells and extracts the contact can be indirect. Some binding calls cover weakened binding; strength is not graded here. For some of these results: Sequences can lack the tags named with a protein.

What was measured:
[1] = target: HA-tagged UL97, wild type, full length (pCGN-HA-UL97) (human cytomegalovirus (HCMV)) (UniProt P16788); assay: co-IP; U-2 OS co-transfected with HA-UL97 (WT, fragment or mutant) and Flag-14-3-3; 48 h; IP buffer 50 mM Tris pH 7.5, 0.1 M NaCl, 1% NP40; anti-HA mAb-magnetic beads; washed with NET gel buffer; Western blot
[2] = target: 14-3-3 ε, endogenous (human (endogenous in HEK-293T, HFF2/T and hTERT-BJ1)) (UniProt P62258); assay: co-IP; serum-starved hTERT-BJ1 infected with rBAD-HA97 or rBAD-HA97-S13A, MOI 3, lysates at 4 dpi; IP with anti-14-3-3 ε or θ antibody or rabbit IgG; Western blot
[3] = target: T1, 14-3-3 θ, endogenous (human (endogenous in HEK-293T, HFF2/T and hTERT-BJ1)) (UniProt P27348); assay: as above
T1 sequence: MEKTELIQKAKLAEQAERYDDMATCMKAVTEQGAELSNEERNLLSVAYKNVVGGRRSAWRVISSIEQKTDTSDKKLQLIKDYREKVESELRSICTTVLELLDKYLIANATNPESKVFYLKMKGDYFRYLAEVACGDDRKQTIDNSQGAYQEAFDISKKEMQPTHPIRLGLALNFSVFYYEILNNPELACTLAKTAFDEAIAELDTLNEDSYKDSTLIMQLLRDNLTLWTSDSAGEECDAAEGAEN

[4] = target: HA-tagged UL97 fragment C1 (279-707 aa) (human cytomegalovirus (HCMV)) (UniProt P16788); assay: co-IP; U-2 OS co-transfected with HA-UL97 (WT, fragment or mutant) and Flag-14-3-3; 48 h; IP buffer 50 mM Tris pH 7.5, 0.1 M NaCl, 1% NP40; anti-HA mAb-magnetic beads; washed with NET gel buffer; Western blot
[5] = target: HA-tagged UL97 fragment C2 (487-707 aa) (human cytomegalovirus (HCMV)) (UniProt P16788); assay: as above
[6] = target: HA-tagged UL97 fragment N1 (1-278 aa) (human cytomegalovirus (HCMV)) (UniProt P16788); assay: as above
[7] = target: HA-tagged UL97 fragment N2 (1-486 aa) (human cytomegalovirus (HCMV)) (UniProt P16788); assay: as above
[8] = target: HA-tagged wild-type UL97 made by the recombinant HCMV rBAD-HA97 (strain AD169) (human cytomegalovirus (HCMV), strain AD169) (UniProt P16788); assay: co-IP; serum-starved hTERT-BJ1 infected with rBAD-HA97 or rBAD-HA97-S13A, MOI 3, lysates at 4 dpi; IP with anti-HA mAb-magnetic beads; Western blot for endogenous 14-3-3
[9] = target: 14-3-3 ε, endogenous (human (endogenous in HEK-293T, HFF2/T and hTERT-BJ1)) (UniProt P62258); assay: co-IP; HFF2/T infected with HCMV AD169, MOI 3, 10% FBS; lysates at 48 and 72 hpi; IP with anti-14-3-3 ε, anti-14-3-3 θ or anti-UL97 antibodies or normal rabbit IgG, protein A/G-magnetic beads; Western blot
[10] = target: T1, 14-3-3 θ, endogenous (human (endogenous in HEK-293T, HFF2/T and hTERT-BJ1)); assay: as above

“Flag-tagged 14-3-3θ (S145A/Y178H/C189I) (from UniProt P27348 1-245)” was tested, and the binding [1] was “binds”.

For “Flag-tagged 14-3-3θ (C134A) (from UniProt P27348 1-245)”, the binding [1] was “binds”.

With “Flag-tagged 14-3-3γ (S150A/Y183H/C194I) (from UniProt P61981 1-247)” the binding [1] was “binds”.

“HA-tagged wild-type UL97 made by the recombinant HCMV rBAD-HA97 (strain AD169) (from UniProt P16788 1-707) (enzyme)” was tested, and the binding [2] was “binds” and the binding [3] was “binds”.

“Flag-tagged 14-3-3 β (from UniProt P31946 1-246)” was tested, and the binding [4] was “no binding”, the binding [5] was “no binding” and the binding [6] was “binds”. The binding [7] was “binds” and the binding [1] was “binds”.

For “Flag-tagged 14-3-3ε (S148A/Y181H/C192I) (from UniProt P62258 1-255)”, the binding [1] was “binds”.

With “Flag-tagged 14-3-3β (S147A/Y180H/C191I) (from UniProt P31946 1-246)” the binding [1] was “binds”.

In the case of “14-3-3 ε, endogenous (from UniProt P62258 1-255)”, the binding [8] is reported as “binds”.

“Flag-tagged 14-3-3η (S150A/Y183H/C194I) (from UniProt Q04917 1-246)” was tested, and the binding [1] was “binds”.

“Flag-tagged 14-3-3σ (A147S/H180Y/I191C) (from UniProt P31947 1-248)” was tested, and the binding [1] was “binds”.

“Flag-tagged 14-3-3 ζ (from UniProt P63104 1-245)” was tested, and the binding [1] was “no binding”.

For “Flag-tagged 14-3-3 ε (from UniProt P62258 1-255)”, the binding [4] was “no binding”, the binding [5] was “no binding” and the binding [6] was “binds”. The binding [7] was “binds” and the binding [1] was “binds”.

With “Flag-tagged 14-3-3ζ (A134C) (from UniProt P63104 1-245)” the binding [1] was “binds”.

In the case of “14-3-3 protein beta/alpha, endogenous (from UniProt P31946 1-246)”, the binding [8] is reported as “binds”.

With “UL97 of HCMV strain AD169 in infected fibroblasts (from UniProt P16788 1-707) (enzyme)” the binding [9] was “binds” and the binding [10] was “binds”.

B1: 14-3-3 protein eta, endogenous (protein, UniProt Q04917 1-246)
chain: MGDREQLLQRARLAEQAERYDDMASAMKAVTELNEPLSNEDRNLLSVAYKNVVGARRSSWRVISSIEQKTMADGNEKKLEKVKAYREKIEKELETVCNDVLSLLDKFLIKNCNDFQYESKVFYLKMKGDYYRYLAEVASGEKKNSVVEASEAAYKEAFEISKEQMQPTHPIRLGLALNFSVFYYEIQNAPEQACLLAKQAFDDAIAELDTLNEDSYKDSTLIMQLLRDNLTLWTSDQQDEEAGEGN
For B1, the binding [8] was “binds”.

B2: 14-3-3 protein gamma, endogenous (protein, UniProt P61981 1-247)
chain: MVDREQLVQKARLAEQAERYDDMAAAMKNVTELNEPLSNEERNLLSVAYKNVVGARRSSWRVISSIEQKTSADGNEKKIEMVRAYREKIEKELEAVCQDVLSLLDNYLIKNCSETQYESKVFYLKMKGDYYRYLAEVATGEKRATVVESSEKAYSEAHEISKEHMQPTHPIRLGLALNYSVFYYEIQNAPEQACHLAKTAFDDAIAELDTLNEDSYKDSTLIMQLLRDNLTLWTSDQQDDDGGEGNN
B2 was tested, and the binding [8] was “binds”.

B3: 14-3-3 θ, endogenous (protein, UniProt P27348 1-245)
chain: T1 sequence
For B3, the binding [8] was “binds”.

B4: Flag-tagged 14-3-3 η (protein, UniProt Q04917 1-246)
chain: B1 chain
With B4 the binding [4] was “no binding”, the binding [5] was “no binding” and the binding [6] was “binds”. The binding [7] was “binds” and the binding [1] was “binds”.

B5: Flag-tagged 14-3-3 γ (protein, UniProt P61981 1-247)
chain: B2 chain
With B5 the binding [4] was “no binding”, the binding [5] was “no binding” and the binding [6] was “binds”. The binding [7] was “binds” and the binding [1] was “binds”.

B6: Flag-tagged 14-3-3 θ (protein, UniProt P27348 1-245)
chain: T1 sequence
B6 was tested, and the binding [4] was “no binding”, the binding [5] was “no binding” and the binding [6] was “binds”. For the same molecule, the binding [7] was “binds” and the binding [1] was “binds”.
